Results reported in PubChem BioAssay AID686978 (National Center for Advancing Translational Sciences (NCATS), 2013).
Out of some 420,000 compounds screened, about 64,000 (15%) were called active. The shares of active, inactive and inconclusive entries below differ from those in the screen. Calls come from the whole dose curve; as a rule, active = well fitted inhibition curve with a large enough effect; inconclusive = small, poorly fitted or top-dose-only effect; inactive = flat fitted curve, though single readings scatter. No potency is given beside an inconclusive call; the fits are too rough.
% is set by controls: 0 for no effect and ±100 for the full control effect; potency is the fitted concentration of half-maximal effect; tags give direction and shape of the fitted curve.

Assay: qHTS for Inhibitors of human tyrosyl-DNA phosphodiesterase 1 (TDP1): qHTS in cells in absence of CPT; note: nearly all actives have a fitted effect of over 55% in size
Conditions: DT40 Tdp1-/- hTDP1 cells, no CPT, ATP luminescence, 48 h; activity change, negative = growth inhibition: at 46.2 µM (top of the series) unless noted
How it was run: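 DT40 Tdp1-/-;hTDP1 cells, no CPT (DMSO vehicle only), 400 cells/well; compounds pin-transferred; ≥48 hr, 37 °C; CellTiter-Glo 30 min RT dark, luminescence read.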
In the case of `Clc1ccccc1Nc1nc(NCC2CC2)nc2ccsc12`, the Potency is reported as active: 20.6 µM. With `NC(=O)C1CCN(c2cc(Cl)ccc2[N+](=O)[O-])CC1` the “activity change, negative = growth inhibition” value was inactive: -1.54%. In the case of `COc1cc(OC)cc(-c2noc(-c3csc([C@@H]4O[C@H](CO)[C@H](O)[C@H](O)[C@H]4O)n3)n2)c1`, the “activity change, negative = growth inhibition” value is reported as inactive: -10.5%. With `CCCN(C(=O)CCn1cnc2onc(-c3ccc(F)cc3)c2c1=O)c1ccccc1C` the Potency was active: 16.4 µM. In the case of `COc1cc(C)c(CN2CCC(Oc3ccc(C(=O)N4CCCC4)cc3)CC2)cc1C`, the Potency is reported as inconclusive [inhibitor, single point]. For `O=C(NC(=S)Nc1ccccc1Cl)c1ccco1`, the Potency was inconclusive [inhibitor, single point]. In the case of `Cc1cc(C)cc(C(=O)Nc2c3c(nn2-c2ccccc2C)CS(=O)(=O)C3)c1`, the “activity change, negative = growth inhibition” value is reported as inactive: -23.2%. With `C=CCNC(=S)/N=c1/ccccn1Cc1ccccc1` the Potency was active: 1.84 µM. For `COc1cc(C(=O)Nc2nnc(CC(C)(C)C)s2)c([N+](=O)[O-])cc1OC`, the Potency was inconclusive [inhibitor, full curve, poor fit]. With `Cc1cc(NC(=O)c2ccc(Cl)cc2)n(CCOC(=O)c2ccc(Cl)cc2)n1` the Potency was inconclusive [inhibitor, single point]. With `CCCCCC1C(C(=O)OCC)C(=O)NC1(C(=O)OCC)C(=O)OCC` (stereo not given) the Potency was inconclusive [inhibitor, single point]. With `Cc1ccc(Cl)cc1N1CCN(C(=O)Cn2nc(C)n3c(cc4sccc43)c2=O)CC1` the Potency was active: 20.6 µM. In the case of `COc1ccc(Cc2c(-c3ccc(F)cc3)nc3cc(C)c(Br)c(C)n23)c(C)c1`, the Potency is reported as active: 18.4 µM. For `CN(C)c1ccc(/C=N/NC(=O)CN(c2ccccc2Cl)S(C)(=O)=O)cc1Br`, the Potency was inconclusive [inhibitor, single point]. With `Cc1ccc(OCC(=O)NNC(=O)c2ccc(F)c(S(=O)(=O)N3CCOCC3)c2)cc1C` the “activity change, negative = growth inhibition” value was inactive: -9.48%. For `O=C(Nc1cccc(-c2csc(Nc3ccccc3)n2)c1)c1cc([N+](=O)[O-])cc(C(F)(F)F)c1`, the Potency was inconclusive [inhibitor, single point]. With `Cc1cccc(NC(=O)CNC(=O)Cn2ncc(Cl)c(Cl)c2=O)c1C` the Potency was active: 9.2 µM. With `CC1(CCc2ccccc2)NC(=O)N(Cc2nnc(-c3ccccc3Br)o2)C1=O` (stereo not given) the Potency was inconclusive [inhibitor, partial curve]. With `CCOC(=O)c1nnn(-c2nonc2N)c1CN(C)Cc1ccccc1` the Potency was inconclusive [inhibitor, single point]. With `CC(C)c1ccc(S(=O)(=O)NCc2ccc3c(c2)OCO3)cc1` the “activity change, negative = growth inhibition” value was inactive: -13.8%. With `O=C1Nc2c(ccc(Cl)c2Cl)C(=O)C1(F)c1ccccc1` (stereo not given) the “activity change, negative = growth inhibition” value was inactive: -29.5%. For `Cc1c(C(=O)NCCSCc2c(F)cccc2Cl)cnn1-c1ccc(Cl)cc1`, the Potency was inconclusive [inhibitor, single point]. In the case of `COC(=O)c1ccc(C(C(=O)NCc2ccccc2)N(Cc2cccs2)C(=O)c2cnccn2)cc1` (stereo not given), the Potency is reported as active: 16.4 µM. In the case of `CCCCCOc1ccc2oc(=O)c3c(c2c1)CCCN3C(=O)CN1CCCC(C(=O)OCC)C1` (stereo not given), the Potency is reported as inconclusive [inhibitor, single point]. With `Cc1ccc(Nc2nnc(SCn3nnc4ccccc4c3=O)s2)cc1` the Potency was inconclusive [inhibitor, partial curve]. For `COc1ccc(NC(=O)c2ccccc2NS(=O)(=O)c2ccc(CNC(C)=O)cc2)c(OC)c1`, the Potency was inconclusive [inhibitor, single point]. In the case of `CCN1CCN(c2ccc(S(=O)(=O)N3CCCCC3)cc2N)CC1`, the “activity change, negative = growth inhibition” value is reported as inactive: 20.7%. For `O=C(c1ccc(O)cc1)c1ccc(Cl)cc1`, the Potency was inconclusive [inhibitor, partial curve]. In the case of `Cc1cc(C)nc(/N=C(\N)Nc2ccccc2-c2ccccc2)n1`, the Potency is reported as active: 11.6 µM. For `O=C1c2ccccc2C(=O)N1Nc1ccccc1`, the “activity change, negative = growth inhibition” value was inactive: -0.658%. For `COc1ccc(-c2ccc(-c3nnc(-c4cc(OC)ccc4OC)o3)cc2)cc1`, the “activity change, negative = growth inhibition” value was inactive: -20.5%. For `CCOc1ccc2nc(NC(=O)CSC3=NCCS3)sc2c1`, the Potency was inconclusive [inhibitor, single point]. In the case of `Cc1ccc(-c2nnn(CC(=O)N(c3ccc(F)cc3)C(C(=O)NC(C)(C)C)c3ccco3)n2)o1` (stereo not given), the Potency is reported as inconclusive [inhibitor, single point]. In the case of `COC(=O)Cn1cnc2sc3c(c2c1=O)CCCC3`, the “activity change, negative = growth inhibition” value is reported as inactive: -28.2%. For `Cc1ncn2cc(-c3ccc(Cl)cc3Cl)[nH]c(=O)c12`, the Potency was inconclusive [inhibitor, partial curve, poor fit]. In the case of `CCOC(=O)C1=C(c2ccccc2)Nc2c(c(=O)n(C)c(=O)n2C)C1c1ccc(O)c(OC)c1` (stereo not given), the “activity change, negative = growth inhibition” value is reported as inactive: -5.44%. In the case of `CC(C)c1ccc(/C=N/NC(=O)c2nnn(-c3nonc3N)c2CN2CCOCC2)cc1`, the Potency is reported as inconclusive [inhibitor, partial curve, poor fit]. In the case of `COCCNC(=O)Cn1c(=O)n(-c2ccc(C)c(C)c2)c(=O)c2c3c(sc21)CCCCC3`, the “activity change, negative = growth inhibition” value is reported as inactive: -1.3%. For `CN1CCN(S(=O)(=O)c2ccc(Oc3ccc(Br)cc3F)nc2)CC1`, the Potency was inconclusive [inhibitor, single point]. In the case of `CCCC(CC)Sc1nc2c([nH]1)c(=S)n(C)c(=O)n2C` (stereo not given), the Potency is reported as active: 3.66 µM. In the case of `Cc1ccc(OCCOCCn2ccnc2)c(Br)c1`, the Potency is reported as active: 23.1 µM. In the case of `CC(C)NC(=O)N(C)C[C@H]1OCCCC[C@H](C)Oc2ccc(NC(=O)NC3CCCCC3)cc2C(=O)N([C@H](C)CO)C[C@@H]1C`, the Potency is reported as inconclusive [inhibitor, single point]. With `O=C(NNc1ncnc2c1cnn2-c1ccccc1)c1ccccc1` the Potency was inconclusive [inhibitor, single point]. For `O=C(O)CC(C(=O)Nc1ccc(Cl)cc1)N1CCCCCC1` (stereo not given), the “activity change, negative = growth inhibition” value was inactive: 10%. In the case of `O=C(NCc1ccc(F)cc1)c1cnc(-c2ccccn2)nc1C(F)(F)F`, the “activity change, negative = growth inhibition” value is reported as inactive: -10.1%. With `CC12CCC(=O)N1C(C(=O)Nc1cc(Cl)ccc1N1CCOCC1)CS2` (stereo not given) the Potency was inconclusive [inhibitor, single point]. In the case of `CCn1c2ccccc2c2cc(/C=N/n3cn[nH]c3=S)ccc21`, the Potency is reported as inconclusive [inhibitor, single point]. For `O=C(Cn1c(SCc2cccc(F)c2)nc2ccncc21)Nc1ccc(Cl)cc1F`, the Potency was inconclusive [inhibitor, partial curve]. In the case of `CCCCC(=O)N(C)c1c(CC)nc2c(OCc3ccc(S(C)(=O)=O)cc3)cccn12`, the Potency is reported as inconclusive [inhibitor, single point]. In the case of `Cc1ccc(C(=O)Nc2ccccc2N2CCCCC2)o1`, the Potency is reported as inconclusive [inhibitor, single point]. In the case of `CN1C2C=C3C(C#N)=C(N)C(C#N)(C#N)[C@H](c4c(F)cccc4F)[C@H]3C1CC2` (stereo not given in full), the Potency is reported as active: 10.3 µM. With `Cn1nnc(NC(=S)NC(=O)c2cccs2)n1` the Potency was inconclusive [inhibitor, single point]. For `Cc1ccc(-c2[nH]c3ccccc3c2C(C[N+](=O)[O-])c2ccco2)cc1` (stereo not given), the Potency was inconclusive [inhibitor, single point]. In the case of `Cc1cc(NC(=O)C2CCCCC2C(=O)O)ccc1NC(=O)c1ccccc1` (stereo not given), the “activity change, negative = growth inhibition” value is reported as inactive: -2.01%. For `Cc1cn([C@H]2C[C@H](O)[C@@H](CNC/C=C/c3ccccc3[N+](=O)[O-])O2)c(=O)[nH]c1=O`, the activity change, negative = growth inhibition was inconclusive: -31.8% [inhibitor]. With `COc1ccc(N2CCN(S(=O)(=O)CCNC(=O)Cc3ccc(-c4ccccc4)cc3)CC2)cc1` the Potency was inconclusive [inhibitor, partial curve, poor fit]. For `O=C1c2ccccc2C(Nc2ccc3c(c2)OCCO3)N1c1ccc(Cl)cn1` (stereo not given), the Potency was active: 16.4 µM. In the case of `O=C(CCCCCN1C(=O)CCC1=O)Nc1ccc(Cl)c(C(F)(F)F)c1`, the Potency is reported as inconclusive [inhibitor, single point]. In the case of `COc1ccc(C(=O)Nc2ccc3nc(N4CCCCC4)cc(C)c3c2)c(OC)c1`, the Potency is reported as inconclusive [inhibitor, single point]. With `Cn1cc(/C=N/n2cnc3sc4c(c3c2=O)CCCC4)c2ccccc21` the Potency was active: 10.3 µM. With `Nc1nc(N=Nc2ccc(O)cc2)cc(=O)[nH]1` the activity change, negative = growth inhibition was inconclusive: -30.9% [inhibitor]. For `Cc1cn2c(=O)cc(COc3cccc(NC(=O)c4cccc(F)c4)c3)nc2s1`, the Potency was inconclusive [inhibitor, full curve]. For `Cc1ccc(C(CC(=O)Nc2ccc(C)cc2C)N2Cc3ccccc3C2=O)cc1` (stereo not given), the Potency was active: 18.4 µM. In the case of `CCOC(=O)c1c(NC(C)=O)c2c3c(sc2n1Cc1cccc(Cl)c1)CCCC3`, the Potency is reported as active: 14.6 µM. For `CCOC(=O)C[C@@H]1OC[C@H](C(C)C)N1S(=O)(=O)c1ccc(C)cc1`, the Potency was inconclusive [inhibitor, single point]. For `CCCCNC(=S)N/N=C/c1ccc(C)s1`, the Potency was inconclusive [inhibitor, single point]. For `C=CCc1c(C)nc2c(OC)cccc2c1Cl`, the Potency was inconclusive [inhibitor, single point]. In the case of `CC1CC(NC(=O)c2c(O)nc3sccn3c2=O)CC(C)(C)C1` (stereo not given), the Potency is reported as inconclusive [inhibitor, single point]. In the case of `COc1ccc(C2Nc3ccccc3NC3=C2C(=O)CC(C)(C)C3)cc1O` (stereo not given), the Potency is reported as inconclusive [inhibitor, single point]. In the case of `COC(=O)c1c[nH]c2c1-c1cc(C(=O)OCc3ccccc3)n(S(=O)(=O)c3ccc(C)cc3)c1C(=O)C2=O`, the Potency is reported as active: 0.58 µM.
